Laboratory results as given in PubChem BioAssay AID2147 (National Center for Advancing Translational Sciences (NCATS), 2009).
The whole screen tested about 230,000 compounds, of which about 3,600 (1.6%) were called active. This list was built around the results that the source calls inconclusive (neither active nor inactive); the mix of calls is not that of the screen. The call rests on the fitted dose curve; in most records, active means well fitted inhibition curve with a large enough effect (not every such curve was filed as active); inconclusive means small, poorly fitted or top-dose-only effect, or another doubt; inactive means no such curve, though single readings can be large or run the other way. Potencies beside an inconclusive call are fits to weak or partial responses and may not hold up.

Each molecule was assayed against Lysine-specific demethylase 4E (Homo sapiens) (UniProt B2RXH2) (assay: qHTS Assay for Inhibitors of Human Jumonji Domain Containing 2E (JMJD2E)). Settings: JMJD2E catalytic domain, FDH-coupled NADH fluorescence (FDH is formaldehyde dehydrogenase); series mostly up to 57.1 µM.
Further: nearly all actives have a fitted effect of over 50% in size.
Potency means the concentration at half of the fitted maximal effect; tags describe the fitted curve by direction and shape.

Sequence of UniProt B2RXH2 (B2RXH2 whole entry, looked up, the tested form may be a part): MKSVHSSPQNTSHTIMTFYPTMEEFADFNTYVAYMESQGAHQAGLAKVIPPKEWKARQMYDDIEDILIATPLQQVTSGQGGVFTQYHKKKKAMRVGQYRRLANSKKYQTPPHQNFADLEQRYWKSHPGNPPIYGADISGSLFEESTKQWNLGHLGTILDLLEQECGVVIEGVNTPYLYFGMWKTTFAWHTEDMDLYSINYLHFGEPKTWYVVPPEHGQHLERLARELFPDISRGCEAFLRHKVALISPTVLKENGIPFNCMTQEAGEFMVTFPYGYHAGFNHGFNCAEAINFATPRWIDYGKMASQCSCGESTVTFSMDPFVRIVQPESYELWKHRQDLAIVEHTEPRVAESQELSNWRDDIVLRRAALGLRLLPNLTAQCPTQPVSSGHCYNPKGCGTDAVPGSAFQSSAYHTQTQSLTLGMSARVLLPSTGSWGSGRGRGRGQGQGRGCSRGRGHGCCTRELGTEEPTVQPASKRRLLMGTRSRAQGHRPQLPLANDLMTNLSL

SMILES | Potency
O=C(Cn1cc(/C=N/NC(=O)c2cccc3ccccc23)c2ccccc21)Nc1ccc(F)cc1 | inconclusive: 25.1 µM [inhibitor, partial curve]
COc1ccc(OC)c(-c2c3cc(O)c(=O)cc-3oc3cc(O)c(O)cc23)c1 | active: 11.2 µM
C[C@H](O)CO[C@H]1[C@H]2O[C@H]3[C@H](O)[C@@H](O)[C@@H](O[C@H]4[C@H](O)[C@@H](O)[C@@H](O[C@H]5[C@H](O)[C@@H](O)[C@@H](O[C@H]6[C@H](O)[C@@H](OC[C@H](C)O)[C@@H](O[C@H]7[C@H](O)[C@@H](OC[C@H](C)O)[C@@H](O[C@H]8[C@H](O)[C@@H](O)[C@@H](O[C@@H]([C@@H]1O)[C@@H](CO)O2)O[C@@H]8CO)O[C@@H]7CO)O[C@@H]6CO)O[C@@H]5CO)O[C@@H]4CO)O[C@@H]3CO | inactive
CN1CCN(c2ccc(NC(=O)c3ccc(-c4cccc([N+](=O)[O-])c4)o3)cc2)CC1 | inactive
O=C(NCC1CCCO1)/C(=C\c1ccco1)NC(=O)c1ccccc1 (stereo not drawn) | inconclusive: 39.8 µM [inhibitor, single point]
COC(=O)c1sc2ccccc2c1N | inconclusive: 28.2 µM [inhibitor, partial curve]
CCOc1ccc(NC(=O)C2CCN(c3nnnn3-c3ccccc3)CC2)cc1 | inactive
CN(C)C=Nc1ncc2c3ccccc3n(Cc3ccccc3)c2c1C#N | inconclusive: 14.1 µM [inhibitor, partial curve]
Cc1ccsc1/C=N/Nc1nc(Cl)c(Cl)cc1Cl | inconclusive: 39.8 µM [inhibitor, single point]
CCCC(=O)Nc1nnc(SCC(=O)N2CCN(c3ccccc3)CC2)s1 | inactive
C#CCn1c(=NC(=O)c2cccs2)sc2cccc(OC)c21 | inconclusive: 31.6 µM [inhibitor, partial curve]
Cc1ccc2cc(CN(c3ccc(C)c(C)c3)S(C)(=O)=O)c(=O)[nH]c2c1 | inconclusive: 31.6 µM [inhibitor, single point]
CCC(C)(C)n1nnnc1C(c1cccc(C#N)c1)N1CCN(c2cccc(C)c2C)CC1 (stereo not drawn) | inactive
COc1cccc2c1CCC(NC(C)=O)C2=O (stereo not drawn) | inconclusive: 25.1 µM [inhibitor, single point]
COc1ccc(C2CC(c3ccc4ccccc4c3)=NN2C(=O)CN2CCC(C(N)=O)CC2)cc1 (stereo not drawn) | inconclusive: 15.8 µM [inhibitor, partial curve]
CCCCn1c(=N)n(CC(=O)O)c2ccccc21 | inconclusive: 35.5 µM [inhibitor, single point]
CCCCOC1CC(c2ccc(OCc3ccc(OC)cc3)c(OC)c2)N(C)O1 (stereo not drawn) | inactive
Cc1nc2sc(C(c3ccco3)N3CCN(c4ccccc4)CC3)c(O)n2n1 (stereo not drawn) | inactive
O=c1c(Cl)c(Cl)cnn1Cc1nnc(-c2ccc(Cl)cc2)o1 | inactive
COc1ccc(-c2cc(C(=O)N3CCN(c4ccccc4OC)CC3)no2)cc1OC | inconclusive: 39.8 µM [inhibitor, single point]
COc1cccc(C(=O)N/N=C/C(Br)=C/c2ccccc2)c1 | inactive
Cn1cc(-c2ccccc2C(N)=O)c(=O)c2cc(Cl)ccc21 | inconclusive: 28.2 µM [inhibitor, single point]

SMILES | Potency
COc1ccc(OC)c2c1C(=O)C(Cl)=C(Cl)C2=O | inconclusive: 0.708 µM [inhibitor, full curve, poor fit]
Cc1cc2ccccc2c(=O)n1CC(=O)N(C)c1ccc(F)cc1 | inconclusive: 31.6 µM [inhibitor, single point]
NC(=O)CC[C@H](NC(=O)c1ccc(F)cc1)C(=O)OCC(=O)Nc1ccc(N2CCOCC2)cc1 | inactive
CCC(=O)N(C1=C(NC)C(=O)c2ccccc2C1=O)C(C)C | inactive
CCSC1(SCC)N=C(N)C2(C#N)C(c3ccc(OC)c(OC)c3OC)C12C#N (stereo not drawn) | inconclusive: 39.8 µM [inhibitor, single point]
CCOC(=O)C1CCN(c2ncnc3c2c(-c2ccccc2)cn3-c2ccccc2)CC1 | inconclusive: 20 µM [inhibitor, single point]
Cc1cc(C)n2c(SCCC(C)C)nnc2n1 | inconclusive: 35.5 µM [inhibitor, single point]
O=C/C(=C\Nc1ccc(S(=O)(=O)CCO)cc1)c1nc2cc(Cl)ccc2o1 | inconclusive: 28.2 µM [inhibitor, single point]
Nn1c(Nc2ccccc2)nc2sc3c(c2c1=O)CCC3 | inconclusive: 39.8 µM [inhibitor, single point]
CC/C=C\C/C=C\C/C=C\CCCCCCCC(=O)O | inconclusive: 20 µM [inhibitor, partial curve]
CCOc1cc(CN2CCN(C(=O)CC(C)C)CC2)ccc1OC | inconclusive: 39.8 µM [inhibitor, single point]
Clc1cccc(CSc2nnc(-c3cccnc3)n2Cc2ccco2)c1 | inactive
Cc1c(C(=O)COC(C)(C)C)[nH]c2ccccc12 | inactive
COc1ccccc1NC(=O)N1CCN(C)CC1 | inconclusive: 35.5 µM [inhibitor, single point]
COc1ccc(OC)c(/C=N/NC(=O)Cn2ccnc2C)c1 | inconclusive: 15.8 µM [inhibitor, partial curve]
COc1ccc(CC(=O)N/N=C(\C)c2ccccn2)cc1 | inconclusive: 28.2 µM [inhibitor, single point]
CCOc1cc(NC(=O)c2ccco2)c(OCC)cc1NC(=O)CCc1ccccc1OC | inconclusive: 28.2 µM [inhibitor, single point]
Cn1cccc1Cc1nnc(SCC(=O)NCc2ccccc2Cl)n1-c1ccc(F)cc1 | inactive
CNc1nc2sc3c(c2c(=O)n1C)CC(C)(C)SC3 | inconclusive: 35.5 µM [inhibitor, single point]
Cn1c(SCc2nnc(-c3ccccc3Br)o2)nc2sc3c(c2c1=O)CCC3 | inactive
N#C/C(=C\c1ccc(OC(=O)c2ccc(Cl)s2)cc1)c1nc2ccccc2[nH]1 | inconclusive: 20 µM [inhibitor, single point]
